Hit rate of the full screen: of about 39,000 compounds, about 220 (0.56%) showed activity. The list shows a part of the results.
tested on: Escherichia coli K-12 BW25113; experiment: relative growth (OD600 normalised to plate interquartile mean) (fraction); higher = less growth inhibition, active = 0.2 or less; conditions: 50 µM; LB; incubation time: overnight (16-24 h)
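Note: static incubation at 37 °C against the wild-type strain, values averaged over two biological replicates.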

Compound | relative growth
C[C@@H]1CN([C@@H](C)CO)C(=O)Cc2cc(NC(=O)Nc3ccc(F)cc3)ccc2O[C@H]1CN(C)C(=O)Nc1ccc(C(F)(F)F)cc1 | inactive: 1
C[C@@H]1CN([C@H](C)CO)C(=O)Cc2cc(NC(=O)NC3CCCCC3)ccc2O[C@@H]1CN(C)Cc1ccc(C(F)(F)F)cc1 | inactive: 0.982
O=C(C[C@@H]1CC[C@@H](NC(=O)c2cccnc2)[C@@H](CO)O1)NCCN1CCCCC1 | inactive: 1.01
O=C(C=Cc1ccc(O)cc1)c1ccc(O)cc1O | inactive: 1.02
CS(=O)(=O)N1CCCn2c(nc(CNC(=O)CC3CC3)cc2=O)C1 | inactive: 1
C[C@@H]1CN([C@@H](C)CO)C(=O)c2cc(NC(=O)Nc3cccc4ccccc34)ccc2O[C@@H](C)CCCCO[C@H]1CN(C)C | inactive: 1.01
COC(=O)c1sccc1NC(=O)Cn1cnc2c1c(=O)n(C)c(=O)n2C | inactive: 1.02
CCc1c(C(=O)OC)nnc2cc(C)nn12 | inactive: 1.02
C=C(C)[C@H]1CC=C(C)CC1 | inactive: 1.01
C#Cc1nccnc1OC | inactive: 0.913
C[C@@H]1CN([C@@H](C)CO)C(=O)c2cc(NC(=O)Nc3ccc(F)cc3)ccc2O[C@@H](C)CCCCO[C@H]1CN(C)C(=O)c1ccccc1 | inactive: 0.99
COCC(=O)N1[C@@H]2CC[C@H]1COC2 | inactive: 1.02
C[C@H]1CCCCO[C@H](CN(C)S(=O)(=O)c2cn(C)cn2)[C@@H](C)CN([C@@H](C)CO)C(=O)c2cc(NS(=O)(=O)c3ccccc3)ccc2O1 | inactive: 1.03
CC1(C)CC2C(=O)CCC3OC3(C)CCC21 (stereo unspecified) | inactive: 0.946
CC(=O)N1[C@H](CO)[C@H](c2ccccc2)[C@H]1CNC(=O)CN1CCOCC1 | inactive: 1
COc1ccccc1CN1C(=O)c2ccccc2[C@@]2(Cc3ccccc3N(C(C)C)C2=O)[C@@H]1c1ccc(CO)cc1 | inactive: 1.03
C[C@H](CO)N1C[C@H](C)[C@H](CN(C)Cc2ccc3c(c2)OCO3)Oc2ccc(NS(C)(=O)=O)cc2C1=O | inactive: 0.982
COc1ccc(S(=O)(=O)Nc2ccc3c(c2)C(=O)N([C@H](C)CO)C[C@@H](C)[C@@H](CN(C)S(=O)(=O)c2ccccc2)O3)cc1 | inactive: 1.01
O=C(c1cn(Cc2cncn2Cc2ccc(Br)cc2)cc1-c1cccc2ccccc12)N1CCOCC1 | inactive: 1.04
CCOC[C@]12Cc3cnn(-c4ccc(F)cc4)c3C=C1CCN(S(=O)(=O)c1ccc(C(F)(F)F)cc1)C2 | inactive: 0.977
C[C@@H]1CN([C@@H](C)CO)C(=O)c2cc(NC(=O)CCN3CCOCC3)ccc2O[C@H]1CN(C)S(=O)(=O)c1cn(C)cn1 | inactive: 0.995

Reference: the supplement of paper PMC9446081
